We go through one molecule from US11197891B2, “Therapies with lanthionine C-like protein 2 ligands and cells prepared therewith” (Landos Biopharma, Inc., priority 2017, dated 2021).

SMILES strings stand for the structures.

For this experiment, the system named is C. difficile. The experiment is described as follows: C. difficile culture in chopped meat media (anti-microbial properties). To be noted: exposure to BT-11.

As for `O=C(c1cccc(-c2nc3ccccc3[nH]2)n1)N1CCN(C(=O)c2cccc(-c3nc4ccccc4[nH]3)n2)CC1` [BT-11, N,N-Bis(benzimidazolylpicolinoyl)piperazine], the “production of Toxin A or Toxin B” value is “did not change production of Toxin A or Toxin B”.
